The values below come from the antibiotic and cytotoxicity screens of Wong et al. (2023).

Experiment [1] concerns HSkMC (human skeletal muscle cells). As to the kind of experiment: cytotoxicity call (relative viability < 0.9). The conditions noted are these: 10 µM.
The test system of experiment [2] is HepG2. As to the kind of experiment: cytotoxicity call (relative viability < 0.9). The following applies: 10 µM.
For experiment [3], the system named is S. aureus RN4220. As to the kind of experiment: growth inhibition call (relative growth <= 0.2). The following applies: 50 µM.

Some of the results follow.

Regarding `O=C(C[C@H]1CC[C@H]2[C@@H](COC[C@@H](O)CN2Cc2cccc(C(F)(F)F)c2)O1)NCCc1ccncc1`, the cytotoxicity call in experiment [1] and in experiment [2] was “inactive” throughout. Besides, the growth inhibition call in experiment [3] was “inactive”.

With `C[C@H]1[C@H](C)CC[C@]2(C(=O)O[C@@H]3O[C@H](CO[C@@H]4O[C@H](CO)[C@@H](O[C@@H]5O[C@@H](C)[C@H](O)[C@@H](O)[C@H]5O)[C@H](O)[C@H]4O)[C@@H](O)[C@H](O)[C@H]3O)CC[C@]3(C)C(=CC[C@@H]4[C@@]5(C)C[C@@H](O)[C@H](O)[C@@](C)(CO)[C@@H]5[C@H](O)C[C@]43C)[C@H]12`, the cytotoxicity call in experiment [1] and in experiment [2] was “inactive” each time. In addition, the growth inhibition call in experiment [3] is “inactive”.

Take `Cc1noc(C)c1S(=O)(=O)N(C)C[C@@H]1Oc2ccc(NC(=O)Cc3cn(C)c4ccccc34)cc2CC(=O)N([C@@H](C)CO)C[C@H]1C`: the cytotoxicity call in experiment [1] and in experiment [2] was “inactive” each time. The growth inhibition call in experiment [3] was “inactive”.

For `C[C@@H]1CN([C@H](C)CO)S(=O)(=O)c2ccc(-c3ccncc3)cc2O[C@@H]1CN(C)Cc1ccc(Oc2ccccc2)cc1`, the cytotoxicity call in experiment [1] and in experiment [2] was “inactive” throughout. Moreover, the growth inhibition call in experiment [3] was “inactive”.

Take `C[C@H](CO)N1C[C@H](C)[C@@H](CN(C)Cc2ccc3c(c2)OCO3)Oc2c(NC(=O)C3CCOCC3)cccc2C1=O`: the cytotoxicity call in experiment [1] and in experiment [2] was “inactive” in each case. In experiment [3], the growth inhibition call is “inactive”.

In the case of `O=C(c1cc2n(n1)CCCO2)N1CC(O)C1`, the cytotoxicity call in experiment [1] and in experiment [2] was “inactive” in each case. In experiment [3], the growth inhibition call was “inactive”.

`C[C@@H]1CN([C@H](C)CO)C(=O)c2cc(NS(=O)(=O)c3ccc(Cl)cc3)ccc2O[C@@H](C)CCCCO[C@@H]1CN(C)CC1CCCCC1`: the cytotoxicity call in experiment [1] was “inactive”. Besides, in experiment [2], the cytotoxicity call is “active”. In addition, the growth inhibition call in experiment [3] was “inactive”.

Regarding `COC(=O)c1c(CC[C@@H](CO)NC(=O)N2CCC[C@H]2Cn2cc(Cc3ccccc3)nn2)oc(C(C)=O)c1C(=O)OC`, the cytotoxicity call in experiment [1] and in experiment [2] was “inactive” throughout. Also, the growth inhibition call in experiment [3] was “inactive”.

Consider `C[C@@H]1CN([C@H](C)CO)C(=O)Cc2cc(NC(=O)Nc3ccc(C(F)(F)F)cc3)ccc2O[C@@H]1CN(C)Cc1ccc(C(=O)Nc2ccccc2N)cc1`, for which the cytotoxicity call in experiment [1] was “inactive”. Moreover, in experiment [2], the cytotoxicity call was “active”. Besides, the growth inhibition call in experiment [3] was “inactive”.

Take `Cc1noc(C)c1S(=O)(=O)Nc1ccc2c(c1)C(=O)N([C@@H](C)CO)C[C@@H](C)[C@@H](CN(C)C(=O)Nc1ccc(C(F)(F)F)cc1)OCCCC[C@H](C)O2`: the cytotoxicity call in experiment [1] and in experiment [2] was “inactive” throughout. In addition, the growth inhibition call in experiment [3] is “inactive”.

For the molecule `C[C@@H]1CN([C@@H](C)CO)C(=O)c2cccc(NS(=O)(=O)c3cn(C)cn3)c2O[C@@H]1CN(C)CC1CCCCC1`, the cytotoxicity call in experiment [1] and in experiment [2] was “inactive” in each case. The growth inhibition call in experiment [3] was “inactive”.

Regarding `C[C@@H]1CN([C@H](C)CO)C(=O)Cc2cc(NC(=O)Nc3cccc4ccccc34)ccc2O[C@H]1CN(C)C(=O)Nc1ccc(C(F)(F)F)cc1`, the cytotoxicity call in experiment [1] and in experiment [2] was “inactive” each time. Moreover, the growth inhibition call in experiment [3] was “inactive”.

`CC(C)C[C@@](O)(CC(=O)O)C(=O)O`: the cytotoxicity call in experiment [1] and in experiment [2] was “inactive” in each case. For the same molecule, the growth inhibition call in experiment [3] was “inactive”.

For `C[C@H](CO)N1C[C@H](C)[C@@H](CN(C)C(=O)C2CCCCC2)Oc2ncc(C#CC3(O)CCCC3)cc2C1=O`, the cytotoxicity call in experiment [1] and in experiment [2] was “inactive” each time. For the same molecule, the growth inhibition call in experiment [3] was “inactive”.

Turning to `COc1ccc(F)c(C(=O)N2CCN(CCO)[C@@H]3CS(=O)(=O)C[C@@H]32)c1F`, the cytotoxicity call in experiment [1] and in experiment [2] was “inactive” in each case. Moreover, the growth inhibition call in experiment [3] is “inactive”.

Turning to `COc1ccc(S(=O)(=O)N(C)C[C@@H]2Oc3ccc(NC(=O)Cc4ccccc4)cc3C(=O)N([C@H](C)CO)C[C@@H]2C)cc1`, the cytotoxicity call in experiment [1] and in experiment [2] was “inactive” each time. The growth inhibition call in experiment [3] was “inactive”.

With `COc1ccc(CN(C)C[C@H]2Oc3ccc(NC(=O)Nc4ccc(C(F)(F)F)cc4)cc3C(=O)N([C@@H](C)CO)C[C@H]2C)cc1`, the cytotoxicity call in experiment [1] and in experiment [2] was “active” throughout. The growth inhibition call in experiment [3] is “inactive”.

Take `Cc1ccc(S(=O)(=O)Nc2ccc3c(c2)C(=O)N([C@H](C)CO)C[C@@H](C)[C@H](CN(C)CC2CC2)O3)cc1`: the cytotoxicity call in experiment [1] and in experiment [2] was “inactive” in each case. Besides, the growth inhibition call in experiment [3] is “inactive”.

For `CC(=O)OC1CC(O)C(C)(C)C2CC(OC(C)=O)C3(C)C(CCC4(C)C(c5ccoc5)OC(=O)C5OC543)C12C` (centres undefined), the cytotoxicity call in experiment [1] and in experiment [2] was “inactive” throughout. In experiment [3], the growth inhibition call was “inactive”.

On to `O=C(C[C@H]1C[C@@H]2c3cc(NS(=O)(=O)c4ccc(F)cc4)ccc3O[C@@H]2[C@H](CO)O1)NC1CCCC1`, for which the cytotoxicity call in experiment [1] and in experiment [2] was “inactive” in each case. Also, the growth inhibition call in experiment [3] is “inactive”.

As to `CCCNC(=O)N1C[C@]2(CCN(CC2)S(=O)(=O)c2cccc(c2)OC)c2c(n(c3cc(ccc23)OC)C)[C@H]1CO`, the cytotoxicity call in experiment [1] and in experiment [2] was “inactive” in each case. Besides, the growth inhibition call in experiment [3] was “inactive”.

For `C[C@H](CO)N1C[C@H](C)[C@@H](CN(C)C(=O)C2CCCCC2)OCCCC[C@H](C)Oc2ccc(NS(=O)(=O)c3ccc(F)cc3)cc2C1=O`, the cytotoxicity call in experiment [1] and in experiment [2] was “inactive” throughout. Also, the growth inhibition call in experiment [3] is “inactive”.

On to `C[C@@H]1CN([C@H](C)CO)C(=O)c2cc(NC(=O)Nc3cccc4ccccc34)ccc2O[C@@H](C)CCCCO[C@H]1CN(C)C(=O)NC1CCCCC1`, for which, in experiment [1], the cytotoxicity call is “inactive”. The cytotoxicity call in experiment [2] was “active”. In addition, in experiment [3], the growth inhibition call was “inactive”.
